In PubChem BioAssay AID504374 (National Center for Advancing Translational Sciences (NCATS), 2011):
The campaign covered roughly 1,500 compounds. About 100 (6.7%) were called active. Not shown: some 7% with an inconclusive outcome. Calls follow the shape of the dose curve; as a rule, active = well fitted inhibition curve with a large enough effect; inconclusive = small, poorly fitted or top-dose-only effect, or effect the other way; inactive = flat fitted curve, though single readings scatter. The list shows a part of the results.

biological target: Runt-related transcription factor 1 (Homo sapiens) + Core-binding factor subunit beta (Homo sapiens) (UniProt Q01196+Q13951); experiment: qHTS Assay for Compounds Blocking the Interaction Between CBF-beta and RUNX1 for the Treatment of Acute Myeloid Leukemia: Hit Validation; conditions: AlphaScreen CBFb-His/RUNX1-biotin binding; series mostly up to 59.8 µM; activity, negative = inhibition: at the top concentration; also: nearly all actives have a fitted effect of over 60% in size
In short: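 Compounds were added to a premixed CBF-beta-His/RUNX1-biotin complex (30 nM each, 20 min) for 15 min. Nickel and streptavidin AlphaScreen beads followed for 90 min at room temperature, with emission at 440 nm […].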
% is scaled to controls: 0 for no effect and ±100 for the full control effect; potency is read from the fitted curve at half-maximal effect.

Sequence of UniProt Q01196 (Q01196 whole entry, looked up): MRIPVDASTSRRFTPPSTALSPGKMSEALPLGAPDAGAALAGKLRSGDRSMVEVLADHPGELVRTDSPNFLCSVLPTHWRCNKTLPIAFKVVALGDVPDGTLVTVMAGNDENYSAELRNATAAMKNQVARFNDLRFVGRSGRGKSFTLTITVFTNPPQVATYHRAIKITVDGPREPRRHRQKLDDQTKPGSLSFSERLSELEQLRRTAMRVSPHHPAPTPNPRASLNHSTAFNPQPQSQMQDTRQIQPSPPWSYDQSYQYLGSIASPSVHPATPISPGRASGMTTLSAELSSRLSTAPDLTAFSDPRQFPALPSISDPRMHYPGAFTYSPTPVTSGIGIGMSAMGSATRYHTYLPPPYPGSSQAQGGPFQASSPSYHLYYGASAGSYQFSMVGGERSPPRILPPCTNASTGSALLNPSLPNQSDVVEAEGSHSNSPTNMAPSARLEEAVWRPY
Sequence of UniProt Q01196 (Q13951 whole entry, looked up): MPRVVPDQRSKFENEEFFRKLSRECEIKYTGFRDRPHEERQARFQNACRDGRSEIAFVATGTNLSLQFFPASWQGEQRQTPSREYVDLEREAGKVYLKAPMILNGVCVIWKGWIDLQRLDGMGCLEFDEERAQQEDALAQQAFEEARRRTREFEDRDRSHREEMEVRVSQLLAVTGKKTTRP

SMILES | activity, negative = inhibition | Potency
OCc1nc2ccc(Cl)cc2[nH]1 | inactive: -1.6% | 
CC(=O)Oc1cc(-c2coc3cc(OC(C)=O)c(OC(C)=O)c(OC(C)=O)c3c2=O)cc(OC(C)=O)c1OC(C)=O |  | active: 1000 nM
COC(=O)c1cc(S(=O)(=O)Nc2nn(C)c3cccc(F)c23)oc1C | inactive: -6.39% | 
Cc1ccc(/C=N/n2c(-c3ccncc3)n[nH]c2=S)s1 | inactive: 7.78% | 
COc1ccc(Cc2c(O)nc(SCC(=O)N3CCOCC3)[nH]c2=O)cc1 | inactive: -4.91% | 
Nc1ccc(N)c(C(=O)O)c1 |  | active: 794 nM
NC(=O)C1CCN(C(=S)NC2CC3C=CC2C3)CC1 (stereo not drawn) | inactive: 2.81% | 
CCCn1nnc(NC(=S)NC(=O)c2ccc(-c3ccc(Br)cc3)o2)n1 | inactive: -7.74% | 
CN(C)CCCNC(=O)c1ccccc1Oc1ccccc1 | inactive: 3.71% | 
COc1ccc(NS(=O)(=O)c2ccc(Cl)s2)cn1 | inactive: -2.13% | 
CN1c2ccccc2C(=O)/C(=C\Nc2ncccn2)S1(=O)=O | inactive: -4.86% | 
C1CCCC(NC2=NCCO2)CCC1 | inactive: -2.83% | 
CSc1cccc(NC(N)=S)c1 | inactive: -4.24% | 
CN1CCC(CNC(=O)Nc2csc3ccccc23)CC1 | inactive: 7.69% | 
O=C(O)C1CC(c2ccccc2)=Nc2ccccc2S1 (stereo not drawn) | inactive: -3.57% | 
c1ccc(CN(Cc2ccccc2)c2ncnc3c2nnn3Cc2ccccc2)cc1 | inactive: -1.94% | 
CCN(CC)C(=O)C12C(=O)Oc3ccccc3C1C2(C)C(=O)c1ccc(F)cc1 (stereo not drawn) | inactive: -1.08% | 
COc1ccc(CCN2C(=O)CSC2=Nc2ccc(C(C)C)cc2)cc1OC | inactive: -0.02% | 
COC(=O)CC1=C(C(=O)OC)[C@@H](c2ccccc2[N+](=O)[O-])C(C#N)=C(N)O1 | inactive: 3.04% | 
CC1(C)C(CC2OCC(CN3CCCCC3)O2)[C@H]2CC[C@@H]1C2 (stereo partly drawn) | inactive: -2.34% | 

SMILES | activity, negative = inhibition | Potency
NNC(=S)Nc1c(F)cc(F)cc1Br | inactive: -7.15% | 
C[N+](C)(C)CCCN(Cc1ccc2c(c1)OCO2)C(=O)NC1CCCCC1 | inactive: -8.77% | 
C/C(=N\NC(=O)Cn1nc(C)cc1C)c1ccc([N+](=O)[O-])cc1 | inactive: -0.734% | 
CN1CCN(CC(=O)Nc2c(C#N)cnn2-c2ccccc2)CC1 | inactive: 9.42% | 
CCn1c(=O)c2c(nc3n2CCCN3c2cccc(C)c2)n(C)c1=O | inactive: -4.87% | 
CC1(C)CC(=O)C2=C(C1)OC(N)=C(C#N)[C@@H]2c1ccccc1[N+](=O)[O-] | inactive: -5.53% | 
Cc1cccc(C)c1NC(=S)N(CCN(C)C)C(C)c1ccccn1 (stereo not drawn) |  | active: 4860 nM
COc1cc(/C=N/n2cc(-c3ccccc3)[nH]c2=S)cc(OC)c1O | inactive: -11.7% | 
CCOC(=O)c1cn[nH]c1NC(=S)Nc1ccccc1 | inactive: 37.9% [at 21.7 µM] | 
Cc1nn(Cc2cccc(C(=O)NN)c2)c(C)c1Cl | inactive: -7.99% | 
CCOC(=O)N1CCC(NS(=O)(=O)c2ccc(C)c(Cl)c2)CC1 | inactive: -2.28% | 
O=C(Oc1c(-c2ccccc2)c(=O)n2c3c(cccc13)CC2)c1cccc([N+](=O)[O-])c1 | inactive: 6.43% | 
CCOC(=O)c1ccc(OC)c(OC)c1Cl | inactive: -7.87% | 
CC1SCC(NC(=O)c2ccccc2Cl)CS1 (stereo not drawn) | inactive: -2.93% | 
CN(c1ccccn1)c1ncnc2[nH]ncc12 | inactive: 13.2% | 
CCOC(=O)c1c(CN2CCN(CCO)CC2)n(-c2ccccc2)c2cc(Br)c(O)cc12 | inactive: -10.7% | 
COc1cccc(/C=N/NC(=O)C(C)Cn2cnc3ccccc32)c1 (stereo not drawn) | inactive: -0.552% | 
CCOC(=O)/C=C/c1nc(C(=O)OCC)c(C)c(=O)[nH]1 | inactive: -1.52% | 
COc1ccc(-c2cn[nH]c2C)cc1 | inactive: -1.74% | 
COc1ccc(Nc2cc(=O)n(-c3ccccc3)c3c2c(=O)n(C)c(=O)n3C)cc1 | inactive: 7.59% | 

SMILES | activity, negative = inhibition | Potency
COC(=O)c1ccc(S(=O)(=O)NCc2ccccc2)n1C | inactive: -12.4% | 
CCCCCCC(=O)N(O)C1CC(=O)N(c2ccc(F)cc2)C1=O (stereo not drawn) | inactive: -2.04% | 
Cc1oc(S(=O)(=O)N(C)C)cc1C(=O)Nc1ccc(Cl)cc1 | inactive: -5.12% | 
CCOC(=O)c1nnn2c3ccccc3c(=O)n(C)c12 | inactive: -3.79% | 
O=C(O)CSc1ccc(NC(=O)Nc2ccccc2F)cc1 | inactive: 4.54% | 
Cc1ccc(C2=Nc3ccccc3SC(c3cccc([N+](=O)[O-])c3)C2)cc1 (stereo not drawn) | inactive: 1.17% | 
CCOC(=O)c1ccc(NC(=O)CC2SC3=NCCN3C2=O)cc1 (stereo not drawn) | inactive: -3.77% | 
Cc1ccc(NC(=S)Nc2ccc3[nH]c(=O)[nH]c3c2)cc1 | inactive: -5.71% | 
Cc1ccc(S(=O)(=O)Nc2cc(-c3ccccc3)nn2C)cc1 | inactive: -4.09% | 
COC(=O)c1ccc(S(=O)(=O)N(CCO)Cc2ccccc2)n1C | inactive: -0.911% | 
CCN(CC)C(=O)CSc1nnc2nnc3cc(Cl)ccc3n12 | inactive: 2.44% | 
NC(=S)Nc1cc(Cl)ccc1Cl | inactive: 5.13% | 
CC1CC(=O)Nc2ccccc2N1S(=O)(=O)c1ccc(C#N)cc1 (stereo not drawn) | inactive: 12.1% | 
O=c1oc2c(O)c(O)cc3c(=O)oc4c(O)c(O)cc1c4c23 |  | active: 158 nM
CC(C)(C)NC(=O)c1cccc2c1C(=O)c1ccccc1-2 | inactive: -5.31% | 
O=C(NC(=S)Nc1cc(C(F)(F)F)ccc1N1CCOCC1)c1ccco1 | inactive: -20.8% | 
CCNc1nc(Cl)nc(-c2cn(-c3ccccc3)c3ccccc23)n1 | inactive: 3.04% | 
NNC(=O)c1ccc(COCC(F)(F)C(F)F)cc1 | inactive: -1.86% | 
